Test results: PMC4615246 (Nucleus, 2015)

Legend:
Assay in all cases: LacI/LacO array recruitment in cells
[1] = biological target: T1, LacI-CFP-Nup133 (human, UniProt Q8WUM0 1-1156)
T1 sequence: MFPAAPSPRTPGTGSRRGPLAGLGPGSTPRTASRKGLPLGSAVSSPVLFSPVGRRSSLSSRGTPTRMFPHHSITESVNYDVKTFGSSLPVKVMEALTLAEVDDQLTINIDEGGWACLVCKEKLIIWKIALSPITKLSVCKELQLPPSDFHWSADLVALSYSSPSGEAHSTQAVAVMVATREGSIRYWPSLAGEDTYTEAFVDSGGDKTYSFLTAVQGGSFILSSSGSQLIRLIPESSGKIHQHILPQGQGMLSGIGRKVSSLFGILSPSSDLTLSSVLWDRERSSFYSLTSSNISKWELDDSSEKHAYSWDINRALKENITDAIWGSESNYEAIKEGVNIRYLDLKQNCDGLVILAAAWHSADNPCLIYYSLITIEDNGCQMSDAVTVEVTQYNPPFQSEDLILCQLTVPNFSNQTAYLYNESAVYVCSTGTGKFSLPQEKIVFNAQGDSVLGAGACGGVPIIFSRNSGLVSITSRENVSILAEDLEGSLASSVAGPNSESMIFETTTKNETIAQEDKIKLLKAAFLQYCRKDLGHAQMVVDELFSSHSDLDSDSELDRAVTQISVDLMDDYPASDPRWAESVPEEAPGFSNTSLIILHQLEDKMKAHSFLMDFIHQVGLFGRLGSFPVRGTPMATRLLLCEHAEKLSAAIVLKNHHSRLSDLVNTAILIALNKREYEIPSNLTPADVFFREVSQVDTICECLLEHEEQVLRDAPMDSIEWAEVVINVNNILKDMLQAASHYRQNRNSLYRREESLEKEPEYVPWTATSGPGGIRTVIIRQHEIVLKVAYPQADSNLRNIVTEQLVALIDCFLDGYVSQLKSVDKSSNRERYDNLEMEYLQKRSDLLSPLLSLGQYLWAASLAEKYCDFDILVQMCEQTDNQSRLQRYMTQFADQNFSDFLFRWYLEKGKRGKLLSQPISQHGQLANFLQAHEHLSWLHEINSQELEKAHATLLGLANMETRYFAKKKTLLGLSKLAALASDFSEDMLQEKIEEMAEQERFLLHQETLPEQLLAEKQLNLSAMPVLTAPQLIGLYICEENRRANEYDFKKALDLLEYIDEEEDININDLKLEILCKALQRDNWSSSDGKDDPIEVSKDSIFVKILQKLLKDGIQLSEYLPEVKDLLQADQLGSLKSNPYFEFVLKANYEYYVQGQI

[2] = biological target: T2, LacI-CFP-Nup50 (human, UniProt Q9UKX7 1-468)
T2 sequence: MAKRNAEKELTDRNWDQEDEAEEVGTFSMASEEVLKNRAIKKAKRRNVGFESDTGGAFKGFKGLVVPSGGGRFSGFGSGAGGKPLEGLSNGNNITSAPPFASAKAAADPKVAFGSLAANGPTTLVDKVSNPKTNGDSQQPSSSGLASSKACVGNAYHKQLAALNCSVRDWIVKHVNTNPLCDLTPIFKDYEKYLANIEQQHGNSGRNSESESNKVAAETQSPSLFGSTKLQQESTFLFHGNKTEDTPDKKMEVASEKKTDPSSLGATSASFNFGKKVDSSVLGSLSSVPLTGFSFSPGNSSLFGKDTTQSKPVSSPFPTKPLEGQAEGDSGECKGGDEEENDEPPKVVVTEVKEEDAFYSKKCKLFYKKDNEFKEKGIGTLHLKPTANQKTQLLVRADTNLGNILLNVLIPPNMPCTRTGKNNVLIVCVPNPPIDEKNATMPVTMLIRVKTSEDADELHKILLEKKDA

[3] = biological target: T3, LacI-CFP-Nup155 (human, UniProt O75694 1-1391)
T3 sequence: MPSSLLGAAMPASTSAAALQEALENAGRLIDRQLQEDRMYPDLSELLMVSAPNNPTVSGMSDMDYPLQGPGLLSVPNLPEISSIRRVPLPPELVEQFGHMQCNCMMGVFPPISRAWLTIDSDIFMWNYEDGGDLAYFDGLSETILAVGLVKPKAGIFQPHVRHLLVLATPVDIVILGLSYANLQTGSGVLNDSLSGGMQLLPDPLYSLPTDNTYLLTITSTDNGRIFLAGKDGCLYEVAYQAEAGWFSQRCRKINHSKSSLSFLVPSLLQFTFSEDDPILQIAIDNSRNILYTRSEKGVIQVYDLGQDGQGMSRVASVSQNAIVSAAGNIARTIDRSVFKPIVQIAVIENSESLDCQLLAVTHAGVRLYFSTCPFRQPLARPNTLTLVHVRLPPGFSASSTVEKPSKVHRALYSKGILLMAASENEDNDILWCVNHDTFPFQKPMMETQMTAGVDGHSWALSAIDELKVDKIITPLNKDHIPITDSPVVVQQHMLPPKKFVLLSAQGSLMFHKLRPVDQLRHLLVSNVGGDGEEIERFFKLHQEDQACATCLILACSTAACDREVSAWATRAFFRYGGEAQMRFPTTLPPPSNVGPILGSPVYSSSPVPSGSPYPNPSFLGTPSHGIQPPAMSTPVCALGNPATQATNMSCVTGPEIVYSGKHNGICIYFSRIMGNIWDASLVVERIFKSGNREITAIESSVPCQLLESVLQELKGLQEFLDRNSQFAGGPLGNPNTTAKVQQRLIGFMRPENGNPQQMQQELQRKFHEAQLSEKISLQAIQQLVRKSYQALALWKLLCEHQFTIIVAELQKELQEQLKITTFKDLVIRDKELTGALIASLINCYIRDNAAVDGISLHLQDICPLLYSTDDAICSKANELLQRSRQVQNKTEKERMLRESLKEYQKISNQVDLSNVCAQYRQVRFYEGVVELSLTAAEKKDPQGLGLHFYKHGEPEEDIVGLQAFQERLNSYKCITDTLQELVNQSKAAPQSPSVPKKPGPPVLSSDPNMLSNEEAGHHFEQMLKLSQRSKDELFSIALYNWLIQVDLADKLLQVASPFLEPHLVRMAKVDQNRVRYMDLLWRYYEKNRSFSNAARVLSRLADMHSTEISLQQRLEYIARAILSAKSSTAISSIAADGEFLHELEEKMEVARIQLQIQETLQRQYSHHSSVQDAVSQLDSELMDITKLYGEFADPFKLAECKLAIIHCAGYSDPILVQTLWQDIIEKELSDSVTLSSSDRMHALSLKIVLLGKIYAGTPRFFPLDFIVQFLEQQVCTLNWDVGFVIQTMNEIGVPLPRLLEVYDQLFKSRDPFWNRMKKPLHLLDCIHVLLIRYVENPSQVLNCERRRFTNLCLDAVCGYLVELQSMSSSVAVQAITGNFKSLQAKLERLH

percent of transfected cells showing colocalization [1]: 45% | percent of transfected cells showing colocalization [2]: 24% | percent of transfected cells showing colocalization [3]: 56%
B1: Pom121 (endogenous) (natural protein)
chain: MSPAAAAAGAGERRRPIASVRDGRGRGCGGPARAVLLGLSLVGLLLYLVPAAAALAWLTVGATAAWWGLSREPRGSRPLSSFVRKARHRRPLSSFVRKARHRRTLFASPLAKSTANGNLLEPRTLLEGPDPAELLLMGSYLGKPGPPQPAAAPEGQDLRDRPGRRPPARPAPRSPPPRSPPPRSPPPSPPTHRAHHVYPSLPTPLLRPSRRPSPRDCGTLPNRFVITPRRRYPIHQAQYSCLGVLPTVCWNGYHKKAVLSPRNSR[about 450 residues not shown]KQSFLFGTQNTSPSSPAAPAASSAPPMFKPIFTAPPKSEKEGPTPPGPSVTATAPSSSSLPTTTSTTAPTFQPVFSSMGPPASVPLPAPFFKQTTTPATAPTTTAPLFTGLASATSAVAPITSASPSTDSASKPAFGFGINSVSSSSVSTTTSTATAASQPFLFGAPQASAASFTPAMGSIFQFGKPPALPTTTTVTTFSQSLHTAVPTATSSSAADFSGFGSTLATSAPATSSQPTLTFSNTSTPTFNIPFGSSAKSPLPSYPGANPQPAFGAAEGQPPGAAKPALAPSFGSSFTFGNSAAPAAAPTPAPPSMIKVVPAYVPTPIHPIFGGATHSAFGLKATASAFGAPASSQPAFGGSTAVFFGAATSSGFGATTQTASSGSSSSVFGSTTPSPFTFGGSAAPAGSGSFGINVATPGSSTTTGAFSFGAGQSGSTATSTPFAGGLGQNALGTTGQSTPFAFNVSSTTESKPVFGGTATPTFGLNTPAPGVGTSGSSLSFGASSAPAQGFVGVAPFGSAALSFSIGAGSKTPGARQRLQARRQHTRKK
